Test results from PubChem BioAssay AID588342 (National Center for Advancing Translational Sciences (NCATS), 2011).
The whole screen tested about 360,000 compounds, of which about 25,000 (6.9%) were called active. The inconclusive results got no clear call from the source; some entries with a clear call stand among them for comparison. Calls come from the whole dose curve; as a rule, active = well fitted inhibition curve with a large enough effect; inconclusive = small, poorly fitted or top-dose-only effect; inactive = flat fitted curve, though single readings scatter. Potencies beside an inconclusive call are fits to weak or partial responses and may not hold up.
Note: nearly all actives have a fitted effect of over 55% in size.
Potency is the fitted concentration of half-maximal effect; tags give direction and shape of the fitted curve.

These molecules were tested against Luciferin 4-monooxygenase (Photinus pyralis) (UniProt P08659) (assay: qHTS profiling assay for firefly luciferase inhibitor/activator using purifed enzyme and Km concentrations of substrates (counterscreen for miR-21 project)). Details: purified FLuc, luminescence inhibition; series mostly up to 57.5 µM.
Sequence of UniProt P08659 (P08659 whole entry, looked up): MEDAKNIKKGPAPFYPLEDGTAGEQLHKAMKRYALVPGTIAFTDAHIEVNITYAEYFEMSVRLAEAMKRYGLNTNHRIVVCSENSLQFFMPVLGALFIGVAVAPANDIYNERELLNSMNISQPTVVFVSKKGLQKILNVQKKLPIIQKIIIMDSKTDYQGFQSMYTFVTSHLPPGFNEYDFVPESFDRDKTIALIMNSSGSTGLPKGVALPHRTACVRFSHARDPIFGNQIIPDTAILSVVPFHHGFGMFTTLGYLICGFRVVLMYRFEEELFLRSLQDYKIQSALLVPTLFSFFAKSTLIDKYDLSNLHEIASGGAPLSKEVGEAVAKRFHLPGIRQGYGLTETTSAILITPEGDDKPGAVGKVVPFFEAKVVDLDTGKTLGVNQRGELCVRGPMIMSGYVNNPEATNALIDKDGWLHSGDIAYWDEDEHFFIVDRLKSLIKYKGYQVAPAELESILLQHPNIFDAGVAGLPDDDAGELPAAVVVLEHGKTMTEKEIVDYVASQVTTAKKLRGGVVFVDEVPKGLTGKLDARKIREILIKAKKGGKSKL
Procedure, shortened: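 Biochemical qHTS of compounds, final roughly 60 µM downward over six points, against 10 nM purified firefly luciferase using Km concentrations of substrates (10 uM D-luciferin, 10 uM ATP) in Tris acetate pH 7.5 buffer; luminescence output.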
`CC(=O)c1cccc(NC(=O)N2CCCC2C(=O)Nc2ccc3c(c2)OCCO3)c1` (stereo not given) was tested, and the Potency was inconclusive: 23.9 µM [inhibitor, partial curve, poor fit]. With `Cc1cccc(-n2nc(C)c3c(C(=O)O)cc(-c4cccs4)nc32)c1` the Potency was inconclusive: 33.8 µM [inhibitor, single point]. With `Cc1ccc(-c2csc(=Nc3ccccc3)n2Cc2ccc3c(c2)OCO3)cc1C` the Potency was inconclusive: 37.9 µM [inhibitor, single point]. For `COc1ccc(S(=O)(=O)c2c(Nc3ccc(F)cc3)sc(C(=O)c3ccc4c(c3)OCO4)c2N)cc1`, the Potency was “inactive”. In the case of `CC1=NNC(=O)C1CC(=O)N/N=C(/C)c1cccc([N+](=O)[O-])c1` (stereo not given), the Potency was “inactive”. For `Cc1nn(-c2ccccc2)c(C)c1/C=N/NC(=O)c1ccccc1O`, the Potency was active: 1.9 µM. For `O=C(c1cccs1)N1CCN(c2nc3c(F)cc(F)cc3s2)CC1`, the Potency was inconclusive: 37.9 µM [inhibitor, single point]. For `O=c1c2ccccc2nc2n1CCC2`, the Potency was inconclusive: 23.9 µM [inhibitor, single point]. For `COc1ccc(Cl)cc1-c1nc(SCC(N)=O)n[nH]1`, the Potency was “inactive”. `COc1ccc(/C=C2\SC(=S)N(C(Cc3ccccc3)C(=O)O)C2=O)cc1` (stereo not given) was tested, and the Potency was inconclusive: 26.9 µM [inhibitor, partial curve]. In the case of `O=C(CSc1nc2ccccc2[nH]1)Nc1ccc(N2CCOCC2)cc1`, the Potency was inconclusive: 26.9 µM [inhibitor, single point]. With `COC(=O)c1ccc(C(=O)OC)c(N)c1` the Potency was inconclusive: 30.1 µM [inhibitor, partial curve, poor fit]. For `O=c1cc(/C=C/c2ccccc2)oc2c1ccc1ccccc12`, the Potency was inconclusive: 12 µM [inhibitor, partial curve, poor fit]. For `Cc1ccccc1C(=O)NCc1nc2cccnc2n1Cc1ccccc1`, the Potency was “inactive”. With `C=C(NC(=O)C(=C)NC(=O)c1csc(C2=NC3c4csc(n4)C4NC(=O)c5csc(n5)C([C@@](C)(O)C(C)O)NC(=O)C5CSC(=N5)/C(=C\C)NC(=O)C(C(C)O)NC(=O)c5csc(n5)[C@]3(CC2)NC(=O)C(C)NC(=O)C(=C)NC(=O)C(C)NC(=O)C(C(C)CC)NC2C=Cc3c(C(C)O)cc(nc3C2O)C(=O)OC4C)n1)C(N)=O` (stereo not given in full) the Potency was “inactive”. With `COc1cccc(CNC(=O)c2nn(-c3ccccc3Cl)nc2CO)c1` the Potency was “inactive”. For `COc1ccc2c(=O)c(-c3ccccc3)c(C)oc2c1`, the Potency was inconclusive: 21.3 µM [inhibitor, single point]. In the case of `CCC(Sc1nnnn1-c1ccccc1)C(=O)Nc1nc2ccccc2s1` (stereo not given), the Potency was inconclusive: 37.9 µM [inhibitor, partial curve, poor fit]. In the case of `CC(C)(CNC(=O)c1ccc(Br)o1)N1CCOCC1`, the Potency was “inactive”. In the case of `CC(C)COc1ccc(S(=O)(=O)n2cc(F)c(=O)[nH]c2=O)cc1`, the Potency was inconclusive: 30.1 µM [inhibitor, partial curve, poor fit]. For `O=c1[nH]c2ccc(NCc3ccccc3OCc3ccc(Cl)cc3)cc2[nH]1`, the Potency was inconclusive: 30.1 µM [inhibitor, partial curve, poor fit]. `CC(C)(C)c1ccc(NC(=O)CON=C(N)c2ccccc2)cc1` was tested, and the Potency was inconclusive: 30.1 µM [inhibitor, single point]. `Nc1c(C(=O)O)cnc2c(-c3ccc(Cl)cc3)cnn12` was tested, and the Potency was active: 3.01 µM. With `CCc1cc2c(=O)c(-c3nc4ccccc4n3C)c(C)oc2c(CN(CC)CC)c1O` the Potency was “inactive”. `CCc1ccc2[nH]c3nc(C)cc(C)c3c(=O)c2c1` was tested, and the Potency was inconclusive: 6.01 µM [inhibitor, full curve]. With `CN(C)/C=C/c1oc2ccc(O)cc2c1[N+](=O)[O-]` the Potency was inconclusive: 12 µM [inhibitor, partial curve]. `CCOC(=O)C1CCN(c2ncnc3c2cnn3-c2ccccc2)CC1` was tested, and the Potency was inconclusive: 26.9 µM [inhibitor, single point]. For `CC(NC(=O)c1cccc(N(C)C)c1)c1ccc(-n2ccnc2)cc1` (stereo not given), the Potency was inconclusive: 30.1 µM [inhibitor, partial curve, poor fit]. With `Cc1ccc(C)c(NC(=O)C2CC3CCC2C3)c1` (stereo not given) the Potency was inconclusive: 15.1 µM [inhibitor, partial curve]. For `O=C(COc1ccc2ccccc2c1)N1CCN(C(=O)c2cccnc2)CC1`, the Potency was inconclusive: 33.8 µM [inhibitor, single point]. For `CCc1cccc(NC(=O)c2cnn(-c3ccccc3)c2C)c1`, the Potency was active: 2.13 µM. In the case of `Cn1cccc1/C=N/NC(=O)c1ccco1`, the Potency was inconclusive: 33.8 µM [inhibitor, single point]. In the case of `COc1cc(C2C(=O)N(C3CCCCCC3)CC(=O)N2CCC2=CCCCC2)ccc1OC(C)C` (stereo not given), the Potency was “inactive”. For `N#Cc1c(N2C(=O)Nc3ccccc3N2O)sc2c1CCCC2`, the Potency was active: 13.5 µM. `O=C1CC(c2ccc3c(c2)OCCO3)Oc2ccc([N+](=O)[O-])cc21` (stereo not given) was tested, and the Potency was active: 0.269 µM. In the case of `O=C(CCc1nnc2n(Cc3ccccc3Cl)c(=O)c3ccccc3n12)Nc1ccc(F)cc1`, the Potency was “inactive”. `COc1ccc(N2CCN(C(=O)CN3CCN(c4nc(-c5ccc(F)cc5)cs4)CC3)CC2)cc1` was tested, and the Potency was “inactive”. In the case of `CCCCN(C(=O)c1cc(=O)[nH]c2ccccc12)c1c(N)n(CCCC)c(=O)[nH]c1=O`, the Potency was “inactive”. `Cc1ccc(S(=O)(=O)c2cnc(SC(C)C(=O)Nc3ccccc3)[nH]c2=O)cc1` (stereo not given) was tested, and the Potency was inconclusive: 10.7 µM [inhibitor, partial curve]. For `Cc1ccc(NS(=O)(=O)c2ccccc2[N+](=O)[O-])cc1C`, the Potency was inconclusive: 37.9 µM [inhibitor, partial curve, poor fit]. For `COc1ccc(NS(=O)(=O)c2ccc(C)c(C(=O)N(C)Cc3ccc(C)cc3)c2)cc1`, the Potency was “inactive”. `CCOC(=O)Cc1cc(=O)n(-c2nc3ccccc3s2)[nH]1` was tested, and the Potency was active: 23.9 µM. For `COc1ccc2c(c1)c1c(c(=O)n(-c3ccc(C)cc3)c(=O)n1CC(=O)N1CCCC1)n2C`, the Potency was “inactive”. `Cc1nc2ccccc2c(=O)n1CCc1ccccc1` was tested, and the Potency was inconclusive: 42.6 µM [inhibitor, partial curve, poor fit]. In the case of `Cc1ccccc1-c1nc2cc(NC(=O)c3cccc(OCCC(C)C)c3)ccc2o1`, the Potency was “inactive”. `CCC(CC)C(=O)Nc1ccc(S(=O)(=O)Nc2nccs2)cc1` was tested, and the Potency was inconclusive: 26.9 µM [inhibitor, partial curve, poor fit]. In the case of `CCC12CN3CC(C)(CN(C1)C3c1ccccc1C)C2=O` (stereo not given), the Potency was “inactive”. In the case of `CCCOc1cccc(C(=O)NCCNC(=O)c2cnccn2)c1`, the Potency was “inactive”. For `O=C1Nc2ccccc2C(O)(C(=O)NCc2ccco2)N1c1ccc(Cl)c(Cl)c1` (stereo not given), the Potency was inconclusive: 19 µM [inhibitor, single point]. `Cn1c(SCC(=O)N2CCCc3ccccc32)ncc(C(=O)Nc2ccc(F)cc2)c1=O` was tested, and the Potency was inconclusive: 33.8 µM [inhibitor, partial curve, poor fit]. With `Cc1cc(C)nc(Nc2ccccc2Cl)n1` the Potency was inconclusive: 37.9 µM [inhibitor, partial curve, poor fit]. For `Cc1ccc(/C=N/NC(=O)c2ccccn2)o1`, the Potency was active: 23.9 µM. In the case of `CCC(=O)N(CC)c1nc(-c2cc(OC)ccc2OC)cs1`, the Potency was inconclusive: 30.1 µM [inhibitor, partial curve, poor fit]. In the case of `CCOc1ccc(NC(=O)c2ccc3c(c2)CCN3S(C)(=O)=O)cc1`, the Potency was “inactive”. `O=c1cc(N2CCOCC2)cnn1-c1ccccc1` was tested, and the Potency was inconclusive: 23.9 µM [inhibitor, partial curve, poor fit]. `CC(C)(Oc1ccc(Cl)cc1)C(=O)Nc1ccc2oc(=O)ccc2c1` was tested, and the Potency was “inactive”. For `O=C(CN1C(=O)CSCC1=O)Nc1ccc2c(c1)OCO2`, the Potency was inconclusive: 37.9 µM [inhibitor, partial curve, poor fit]. `Cc1ccc2nc(/C(C#N)=C/c3ccc(O)c(O)c3)[nH]c2c1` was tested, and the Potency was active: 19 µM. `Cc1ccccc1-c1noc(-c2cc3ccccc3oc2=O)n1` was tested, and the Potency was active: 1.9 µM. In the case of `Cc1ccc(C(=O)CCC(=O)OCC(=O)NNC(=O)c2ccccc2Cl)cc1`, the Potency was inconclusive: 42.6 µM [inhibitor, partial curve, poor fit]. For `Cc1ccc(-n2ncc(C(=O)Nc3ccc4c(c3)OCCO4)c2C2CCN(C(=O)OC(C)(C)C)CC2)cc1`, the Potency was inconclusive: 26.9 µM [inhibitor, partial curve, poor fit]. `Cc1ccc(/C=N/n2cnc3sc(C)c(C)c3c2=O)o1` was tested, and the Potency was inconclusive: 26.9 µM [inhibitor, partial curve]. With `COc1ccc(CN2C(=O)c3ccccc3C2OC)cc1` (stereo not given) the Potency was “inactive”. For `CCc1ccc(C(N)=S)cc1`, the Potency was “inactive”. `Cc1oc(C(C)(C)C)cc1C(=O)Nc1ccc2c(c1)OCO2` was tested, and the Potency was inconclusive: 19 µM [inhibitor, partial curve]. In the case of `COc1ccc(NC(=O)CSc2nc(N)c(-c3ccccc3)c(=O)[nH]2)cc1`, the Potency was “inactive”. For `Cn1nccc1C(=O)Nc1ccc(Cl)cc1`, the Potency was inconclusive: 19 µM [inhibitor, partial curve]. With `COC(=O)c1ccc(COc2ccc(/C=C/C(=O)c3ccc(OC)c(CSCC(=O)O)c3)cc2OC)cc1` the Potency was inconclusive: 26.9 µM [inhibitor, single point]. `O=C(/C=C/c1ccc(F)cc1)N1CCN(c2ncccn2)CC1` was tested, and the Potency was inconclusive: 15.1 µM [inhibitor, partial curve]. `COc1cccc(-c2ccc(SCC(=O)N3CCN(c4ccccc4)CC3)nn2)c1` was tested, and the Potency was inconclusive: 19 µM [inhibitor, partial curve, poor fit].
